# Experimental data reported in the supplement of paper PMC12217912.
# Some of the results follow. The full chains were built here from the parent and the listed change. Values near 0.05 are background.
# B1: TEV protease; numbered along this chain (parent)
# chain: MGESLFKGPRDYNPISSSICHLTNESDGHTTSLYGIGFGPFIITNKHLFRRNNGTLVVQSLHGVFKVKDTTTLQQHLVDGRDMIIIRMPKDFPPFPQKLKFREPQREERICLVTTNFQTKSMSSMVSDTSCTFPSGDGIFWKHWIQTKDGQCGSPLVSTRDGFIVGIHSASNFTNTNNYFTSVPKNFMELLTNQEAQQWVSGWRLNADSVLWGGHKVFMVKPEEPFQPVKEATQL
# Variants of: B1
# Assay: raw area under fraction-flipped curve 0-4 h after induction (AUC4h, not background-subtracted), DNA-recorder readout of cleavage of the substrate (dimensionless); higher = more cleavage of the substrate by the protease variant
# Conditions: temperature: 34 °C; time window: 0-4 h after rhamnose induction
# 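Note: Bxb1 expression induced with 0.2% (w/v) L-rhamnose at OD600 near 0.5, cultures sampled hourly, flipped fraction per protease–substrate barcode pair counted by paired-end Illumina sequencing.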
Variant,area with substrate ECLYFQS,area with substrate EILYFQS,area with substrate EKLYFQS,area with substrate EMLYFQS,area with substrate EPLYFQS,area with substrate ESLYFQS,area with substrate EVLYFQS,area with substrate EYLYFQS,area with substrate EGLYFQS,area with substrate EHLYFQS,area with substrate ELLYFQS,area with substrate ERLYFQS,area with substrate EWLYFQS,area with substrate ETLYFQS,area with substrate EELYFQS,area with substrate EDLYFQS,area with substrate EFLYFQS,area with substrate EQLYFQS
W212Y,0.089,0.0991,0.119,0.136,0.156,0.0962,0.0758,0.174,,,,,,,,,,
F133S,0.122,0.109,0.0983,0.106,,0.107,,,0.0869,0.107,0.103,0.0705,0.089,,,,,
C131A,0.0969,,,,,,,,0.0879,,,,,0.106,,,,
G150M,0.0503,0.0577,0.0223,,,0.0605,0.0579,0.059,0.0542,0.0586,0.0518,0.0594,0.0637,,0.0547,,,
A196P,0.0755,,,0.0998,0.135,0.0834,0.0849,,0.0689,,0.032,0.0961,0.0961,,,0.117,0.0985,
N177W,0.0656,,0.0669,0.0789,,0.0605,,0.0818,,,0.0501,0.062,,,,0.0752,,0.0883
F173P,0.0851,0.0776,0.0766,,,0.0874,0.0935,0.0907,,0.085,,,,0.0866,0.12,,,
H215T,0.0551,0.0662,,,,,0.0618,0.0924,,,,,0.0643,,,0.111,,
S171R,0.0793,,0.0686,,0.0947,0.0935,0.0775,,,0.0959,,0.0945,,0.106,0.11,0.136,,
W141D,0.0522,0.0472,0.127,0.0509,,,,,,0.0553,,0.0524,,,0.0597,0.0579,0.0714,
Y34M,,0.0965,0.0902,0.109,0.1,0.0869,0.0818,,,0.108,0.0812,,,,,0.12,0.11,
N193F,0.0777,0.0574,,,,0.0954,0.0831,,,,,,0.0828,,0.0706,,,0.101
T181N,0.0684,0.0556,0.0728,,0.0823,0.0776,0.0727,,,0.0496,,0.0689,,,,0.0806,,
T181Q,0.0605,0.066,0.0132,,,0.0638,,,,,0.0573,0.069,,,,,,0.0545
N172D,0.0846,,,,0.0958,0.0575,,,0.087,,0.0777,,,0.0951,,0.0916,,0.0809
I145A,0.14,,0.109,,0.141,,0.11,,0.113,,,0.113,,,,,,0.174
I145S,0.134,0.115,0.166,0.144,,0.17,0.125,,,,,,0.139,0.181,0.163,0.165,,0.137
S201T,0.113,0.12,,0.116,,0.15,,,0.154,,0.114,0.109,0.134,,0.0884,,,

Variant,area with substrate ECLYFQS,area with substrate EILYFQS,area with substrate EKLYFQS,area with substrate EMLYFQS,area with substrate EPLYFQS,area with substrate ESLYFQS,area with substrate EVLYFQS,area with substrate EYLYFQS,area with substrate EGLYFQS,area with substrate EHLYFQS,area with substrate ELLYFQS,area with substrate ERLYFQS,area with substrate EWLYFQS,area with substrate ETLYFQS,area with substrate EELYFQS,area with substrate EDLYFQS,area with substrate EFLYFQS,area with substrate EQLYFQS
L61I,,0.0889,,,,0.156,,,,0.125,,0.106,0.096,0.126,0.121,0.121,,0.112
L156P,0.0516,0.0345,,,0.0547,0.0562,0.0411,,0.0553,,0.0551,0.0549,0.0547,,0.0445,,0.0462,0.0537
S158Q,0.071,0.0457,0.0617,,,0.0657,0.0776,0.0359,0.0586,0.0653,,,,,0.15,0.0601,,
S158K,0.0613,0.0467,0.0475,0.0588,0.0434,0.05,0.0452,0.0535,0.0591,0.0572,0.0491,0.0579,0.0541,0.0451,,0.0412,,
H143Q,0.0572,0.0627,,0.065,,0.0563,0.0552,0.061,0.0583,0.0621,,0.0636,,0.0598,0.0677,,,0.0783
V157H,0.0634,0.0476,0.0486,0.0572,0.044,0.0594,0.0599,,0.0509,0.0568,0.0579,,0.064,0.064,0.0605,,,0.0672
G213P,0.071,0.0768,,,0.0611,,,,,0.0623,,0.0622,,,,,0.0638,0.0507
G213I,0.0502,0.0394,,0.0807,0.0488,0.0464,,,0.0577,,,,0.0471,0.0526,0.0632,0.0826,0.0559,0.0553
G213E,0.0596,,,,,0.0714,,0.057,0.0767,,,,,0.0651,,,0.0697,0.0642
F218E,0.0877,0.0807,0.0991,0.0841,,0.0897,,,0.089,0.114,0.075,0.1,0.078,,0.0901,0.103,0.0724,
W203F,0.0697,0.0981,,,,,,,,,,,,,0.0942,,,0.0747
W203Q,0.0562,0.04,0.0687,,,0.0727,0.0688,,,0.0571,,,,,,,,0.0708
G166H,0.0517,0.0587,0.0503,0.0538,0.0615,0.0515,0.0524,,0.0428,,0.0402,0.0491,0.0573,,0.0462,,0.0745,0.0591
G166Y,0.0519,0.058,,0.0499,,0.0546,0.0434,,,0.0521,,0.055,,0.0456,0.0529,,,0.019
F6C,,,,,0.0959,,0.0754,,0.07,,,,,,,0.0863,,
L190K,0.091,0.0669,0.0979,0.134,0.0902,0.103,0.0894,,0.0637,0.0831,0.0884,0.0868,0.0771,0.145,0.156,0.126,,
L190I,0.0986,,,,0.132,0.088,0.0496,0.116,0.11,,0.0953,,0.0934,,,0.14,,
E231K,0.102,,,,0.135,,0.0958,,,,,0.122,,,0.144,,,0.119
